The record followed here is the supplement of paper PMC9446081.

Out of some 39,000 compounds screened, about 220 (0.56%) showed activity. The list shows a part of the results.
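Further: static incubation at 37 °C against the wild-type strain, values averaged over two biological replicates.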

The subject of the test is Escherichia coli K-12 BW25113. Description: relative growth (OD600 normalised to plate interquartile mean) (fraction); higher = less growth inhibition, active = 0.2 or less. Conditions: 50 µM; LB; incubation time: overnight (16-24 h).
Consider `C[C@@H]1CN([C@@H](C)CO)C(=O)c2cc(NC(=O)Nc3ccc(F)cc3)ccc2O[C@@H](C)CCCCO[C@@H]1CN(C)C(=O)CCCN(C)C`, for which the relative growth was inactive: 0.989.
In the case of `C[C@H](CO)N1C[C@H](C)[C@H](CN(C)S(=O)(=O)c2ccc(Cl)cc2)Oc2ccc(N(C)C)cc2CC1=O`, the relative growth is inactive: 1.01.
The figure for `Cc1cn([C@H]2O[C@@H](CO)[C@H](O)[C@H]2F)c(=O)[nH]c1=O` is inactive: 0.988; for `C[C@H]1CN([C@@H](C)CO)S(=O)(=O)c2ccc(-c3ccncc3)cc2O[C@@H]1CN(C)S(=O)(=O)c1ccccc1F` it is inactive: 1.01; for `COc1ccc(CN(C)C[C@H]2OCCCC[C@H](C)Oc3ccc(NC(=O)Cc4ccccc4)cc3C(=O)N([C@@H](C)CO)C[C@H]2C)cc1` it is inactive: 1.01.
For `C[C@H]1CN([C@@H](C)CO)C(=O)c2cc(NC(=O)CCC(F)(F)F)ccc2O[C@@H]1CN(C)Cc1ccc(-c2ccccc2)cc1` the value was inactive: 0.965.
For `Nc1nc(=O)c2c(CCc3ccc(C(=O)NC(CCC(=O)[O-])C(=O)[O-])cc3)c[nH]c2[nH]1.[Na+].[Na+]` (centres undefined) the value was inactive: 1.13; for `C[C@H]1CN([C@@H](C)CO)C(=O)c2cccc(NC(=O)C3CCOCC3)c2O[C@H]1CN(C)S(=O)(=O)c1ccccc1`, inactive: 0.978; for `C[C@@H]1CN([C@@H](C)CO)C(=O)c2ccccc2-c2ccccc2CO[C@H]1CN(C)C(=O)Nc1ccc(F)cc1`, inactive: 1.01.
Turning to `COc1ccc(S(=O)(=O)N(C)C[C@H]2OCCCC[C@@H](C)Oc3ccc(NS(=O)(=O)c4ccc(Cl)cc4)cc3C(=O)N([C@H](C)CO)C[C@@H]2C)cc1`, the relative growth was inactive: 1.01.
The figure for `COc1ccc(S(=O)(=O)Nc2ccc3c(c2)C(=O)N([C@H](C)CO)C[C@@H](C)[C@@H](CN(C)CC2CC2)O3)cc1` is inactive: 0.979; for `Cn1c(=O)n2n(c1=O)[C@H](C1CC1)C=C1CN3[C@@H]([C@H](CCn4cc(-c5ccc(C(=O)NO)cc5)nn4)OC(=O)[C@@H]3Cc3ccccc3)[C@@H]12` it is inactive: 1.02; for `C[C@@H]1CN([C@@H](C)CO)C(=O)Cc2cc(NC(=O)Nc3ccccc3)ccc2O[C@H]1CN(C)Cc1ccc(Oc2ccccc2)cc1` it is inactive: 1.03.
The figure for `C[C@H](CO)N1C[C@H](C)[C@H](CN(C)C(=O)Nc2ccc3c(c2)OCO3)OCCCC[C@H](C)Oc2ccc(NC(=O)Nc3cccc4ccccc34)cc2C1=O` is inactive: 1.05; for `CC(=O)OCC(=O)C1(O)CCC2C3CCC4=CC(=O)C=CC4(C)C3C(O)CC21C` (centres undefined) it is inactive: 1.02; for `Cc1ccc(S(=O)(=O)N(C)C[C@H]2Oc3ccc(NC(=O)CCCN(C)C)cc3CC(=O)N([C@@H](C)CO)C[C@@H]2C)cc1` it is inactive: 1.
The figure for `C[C@H]1CN([C@@H](C)CO)C(=O)c2c(c3ccccc3n2C)-c2ccccc2CO[C@@H]1CN(C)S(C)(=O)=O` is inactive: 1.02; for `O=C(C[C@H]1CC[C@H]2[C@@H](COC[C@H](O)CN2C(=O)c2ccc3c(c2)OCO3)O1)NCCN1CCCC1` it is inactive: 1.01.
Take `C[C@@H]1CN([C@H](C)CO)C(=O)c2cc(NC(=O)C3CCCCC3)ccc2O[C@@H](C)CCCCO[C@H]1CN(C)C(=O)Nc1cccc2ccccc12`: the relative growth is inactive: 1.01.
The figure for `Cc1ccc(S(=O)(=O)Nc2ccc3c(c2)C(=O)N([C@@H](C)CO)C[C@H](C)[C@@H](CN(C)C(=O)NC2CCCCC2)OCCCC[C@H](C)O3)cc1` is inactive: 1; for `Cc1noc(C)c1S(=O)(=O)N(C)C[C@@H]1Oc2ccc(NS(C)(=O)=O)cc2C(=O)N([C@@H](C)CO)C[C@@H]1C` it is inactive: 0.999.
For `C=c1[nH]/c(=C\c2ccc(F)cc2)c(=O)o1` the value was inactive: 1.03.
In the case of `CCNC(=O)C[C@H]1CC[C@H](NC(=O)C2CCOCC2)[C@@H](CO)O1`, the relative growth is inactive: 0.995.
The figure for `COCCNC(=O)C[C@H]1C[C@@H]2c3cc(NC(=O)CN(C)C)ccc3O[C@@H]2[C@H](CO)O1` is inactive: 1.03; for `C[C@@H]1CCCCO[C@@H](CN(C)C(=O)NC2CCCCC2)[C@H](C)CN([C@H](C)CO)C(=O)c2cc(NC(=O)c3ccccc3)ccc2O1` it is inactive: 0.972; for `CN1CCN(C(=O)C[C@H]2CC[C@H]3[C@H](COc4ccc(NC(=O)C5CCOCC5)cc4C(=O)N3C)O2)CC1` it is inactive: 0.985.
For `CC(=O)Oc1ccn(C)c(=O)c1C#N` the value was inactive: 1; for `Cc1ccc(S(=O)(=O)N(C)C[C@H]2Oc3ccc(NS(=O)(=O)c4ccccc4)cc3C(=O)N([C@@H](C)CO)C[C@H]2C)cc1`, inactive: 1.02; for `C[C@H](CO)N1C[C@H](C)[C@H](CN(C)Cc2ccc(C(=O)Nc3ccccc3N)cc2)Oc2ccc(NC(=O)Nc3ccc(C(F)(F)F)cc3)cc2C1=O`, inactive: 0.986.
The figure for `CC(C=CC1=C(C)CCCC1(C)C)=CC=CC(C)=CCO` is inactive: 0.993; for `Cc1ccc(S(=O)(=O)N(C)C[C@H]2OCCCC[C@H](C)Oc3ccc(NC(=O)Nc4cccc5ccccc45)cc3C(=O)N([C@@H](C)CO)C[C@H]2C)cc1` it is inactive: 1.03.
As to `COc1cccc(-c2ccc3c(c2)O[C@H](CN(C)Cc2cncnc2)[C@H](C)CN([C@H](C)CO)S3(=O)=O)c1`, the relative growth is inactive: 1.
Take `CCCNC(=O)N1C[C@H](O)COC[C@@H]2O[C@@H](CC(=O)N3CCOCC3)CC[C@H]21`: the relative growth was inactive: 0.995.
The figure for `C[C@H](CO)N1C[C@H](C)[C@@H](CN(C)Cc2ccc(-c3ccccc3)cc2)Oc2ccc(NS(=O)(=O)c3ccccc3)cc2C1=O` is inactive: 0.838; for `Cc1ccc(S(=O)(=O)NCC[C@@H]2CC[C@@H](NS(=O)(=O)c3ccccc3Cl)[C@H](CO)O2)cc1` it is inactive: 1; for `Cc1noc(C)c1NC(=O)N(C)C[C@@H]1OCCCC[C@H](C)Oc2ccc(NC(=O)c3ccccc3)cc2C(=O)N([C@@H](C)CO)C[C@@H]1C` it is inactive: 0.954.
The figure for `C[C@@H]1CCCCO[C@H](CN(C)C(=O)C2CCCCC2)[C@H](C)CN([C@H](C)CO)C(=O)c2cc(NS(=O)(=O)c3cccs3)ccc2O1` is inactive: 1.01; for `NCC[C@@H](Cc1ccccc1)c1ccc2c(c1)OCO2` it is inactive: 1.04.
On to `CN(C)C(=O)C[C@@H]1CC[C@H]2[C@@H](COC[C@@H](O)CN2S(=O)(=O)c2ccccc2)O1`, for which the relative growth is inactive: 0.994.
The figure for `COc1ccc(S(=O)(=O)N(C)C[C@H]2Oc3cc(C4=CCCC4)ccc3S(=O)(=O)N([C@@H](C)CO)C[C@H]2C)cc1` is inactive: 1.02.
The figure for `COc1ccc(NC(=O)Nc2ccc3c(c2)[C@H]2C[C@@H](CC(=O)NCC(F)(F)F)O[C@@H](CO)[C@H]2O3)cc1` is inactive: 0.963; for `C[C@H](CO)N1C[C@H](C)[C@H](CN(C)C(=O)NC2CCCCC2)Oc2ccc(NC(=O)c3ccncc3)cc2CC1=O` it is inactive: 0.984; for `C[C@@H]1CCCCO[C@@H](CN(C)Cc2ccc3c(c2)OCO3)[C@@H](C)CN([C@H](C)CO)C(=O)c2cc(NS(=O)(=O)c3ccc(F)cc3)ccc2O1` it is inactive: 1.
For `C[C@@H]1CN([C@@H](C)CO)C(=O)c2cccc(NC(=O)CCCCCC(=O)Nc3ccccc3N)c2O[C@H]1CN(C)Cc1ccccc1` the value was inactive: 0.992; for `COCCOC(=O)N1C(=O)[C@@]2(c3cc(C#Cc4ccc(OC)cc4)ccc31)[C@H](c1ccc(OCCO)cc1)N1[C@H](c3ccccc3)[C@H](c3ccccc3)OC(=O)[C@H]1[C@@H]2C(=O)N1CCN(c2ncccn2)CC1`, inactive: 1.05.
For the compound `Cc1ccc(S(=O)(=O)N(C)C[C@@H]2OCCCC[C@H](C)Oc3ccc(NS(=O)(=O)c4ccc(F)cc4)cc3C(=O)N([C@@H](C)CO)C[C@H]2C)cc1`, the relative growth is inactive: 1.02.
For `Cn1nnnc1-c1ccc(N)cc1` the value was inactive: 1.01; for `Cc1noc(C)c1NC(=O)Nc1ccc2c(c1)C(=O)N([C@@H](C)CO)C[C@@H](C)[C@@H](CN(C)S(=O)(=O)c1ccccc1)O2`, inactive: 0.989.
For `CC(C)N=c1cc2n(-c3ccc(Cl)cc3)c3ccccc3nc-2cc1Nc1ccc(Cl)cc1` the value was inactive: 0.897; for `COc1cc(C(=O)N2CCC(N3CCN(C)CC3)CC2)ccc1Nc1ncc2c(n1)N(C)c1ccccc1C(=O)N2C`, inactive: 1.03; for `O=C(NO)c1ccc(-c2cn(CC(=O)N3CCOCC3)nn2)cc1`, inactive: 0.844.
For `O=C1O[C@@H](c2ccccc2)[C@@H](c2ccccc2)N2[C@@H](c3ccc(OCCO)cc3)[C@]3(C(=O)Nc4ccc(C#CCCO)cc43)[C@@H](C(=O)N3CCCCCCC3)[C@H]12` the value was inactive: 1.01.
As to `C[C@H](CO)N1C[C@H](C)[C@@H](CN(C)S(=O)(=O)c2cccs2)Oc2c(NC(=O)c3ccncc3)cccc2C1=O`, the relative growth is inactive: 0.999.
Regarding `C[C@@H]1CN([C@@H](C)CO)C(=O)c2cc(NS(=O)(=O)c3cn(C)cn3)ccc2O[C@@H]1CN(C)C(=O)Nc1ccccc1`, the relative growth is inactive: 0.987.
For `C[C@H](CO)N1C[C@H](C)[C@@H](CN(C)C(=O)C2CCCCC2)Oc2cc(C#C[C@@H](C)O)ccc2S1(=O)=O` the value was inactive: 1.02; for `O=C(C[C@@H]1C[C@@H]2c3cc(NC(=O)Cc4ccncc4)ccc3O[C@@H]2[C@@H](CO)O1)NCCN1CCCCC1`, inactive: 1.01.
For `CC(C)C#Cc1ccc2c(c1)O[C@@H](CN(C)C(=O)c1cnccn1)[C@@H](C)CN([C@@H](C)CO)S2(=O)=O` the value was inactive: 1.02; for `C[C@H]1CCCCO[C@H](CN(C)Cc2ccc(C(F)(F)F)cc2)[C@@H](C)CN([C@@H](C)CO)C(=O)c2cc(NC(=O)Cc3ccccc3)ccc2O1`, inactive: 0.921; for `C[C@@H]1CN([C@H](C)CO)S(=O)(=O)c2ccc(C#Cc3ccncc3)cc2O[C@H]1CN(C)S(=O)(=O)c1ccc(F)cc1`, inactive: 1.03.
